Data from publication PMC4336329 (PLoS ONE, 2015).
Hit rate of the full screen: of about 310,000 compounds, about 14,000 (4.5%) showed an effect of 50% or more. Effects have a minus sign here. This is one part of the list.

target: human ether-à-go-go-related gene (hERG) potassium channel (human, UniProt Q12809); test: primary screen, population patch clamp on CHO cells stably expressing hERG
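Further: peak tail current of the secondary pulse compared with the same well before compound.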

Chain of human ether-à-go-go-related gene (hERG) potassium channel (Q12809 whole entry, looked up): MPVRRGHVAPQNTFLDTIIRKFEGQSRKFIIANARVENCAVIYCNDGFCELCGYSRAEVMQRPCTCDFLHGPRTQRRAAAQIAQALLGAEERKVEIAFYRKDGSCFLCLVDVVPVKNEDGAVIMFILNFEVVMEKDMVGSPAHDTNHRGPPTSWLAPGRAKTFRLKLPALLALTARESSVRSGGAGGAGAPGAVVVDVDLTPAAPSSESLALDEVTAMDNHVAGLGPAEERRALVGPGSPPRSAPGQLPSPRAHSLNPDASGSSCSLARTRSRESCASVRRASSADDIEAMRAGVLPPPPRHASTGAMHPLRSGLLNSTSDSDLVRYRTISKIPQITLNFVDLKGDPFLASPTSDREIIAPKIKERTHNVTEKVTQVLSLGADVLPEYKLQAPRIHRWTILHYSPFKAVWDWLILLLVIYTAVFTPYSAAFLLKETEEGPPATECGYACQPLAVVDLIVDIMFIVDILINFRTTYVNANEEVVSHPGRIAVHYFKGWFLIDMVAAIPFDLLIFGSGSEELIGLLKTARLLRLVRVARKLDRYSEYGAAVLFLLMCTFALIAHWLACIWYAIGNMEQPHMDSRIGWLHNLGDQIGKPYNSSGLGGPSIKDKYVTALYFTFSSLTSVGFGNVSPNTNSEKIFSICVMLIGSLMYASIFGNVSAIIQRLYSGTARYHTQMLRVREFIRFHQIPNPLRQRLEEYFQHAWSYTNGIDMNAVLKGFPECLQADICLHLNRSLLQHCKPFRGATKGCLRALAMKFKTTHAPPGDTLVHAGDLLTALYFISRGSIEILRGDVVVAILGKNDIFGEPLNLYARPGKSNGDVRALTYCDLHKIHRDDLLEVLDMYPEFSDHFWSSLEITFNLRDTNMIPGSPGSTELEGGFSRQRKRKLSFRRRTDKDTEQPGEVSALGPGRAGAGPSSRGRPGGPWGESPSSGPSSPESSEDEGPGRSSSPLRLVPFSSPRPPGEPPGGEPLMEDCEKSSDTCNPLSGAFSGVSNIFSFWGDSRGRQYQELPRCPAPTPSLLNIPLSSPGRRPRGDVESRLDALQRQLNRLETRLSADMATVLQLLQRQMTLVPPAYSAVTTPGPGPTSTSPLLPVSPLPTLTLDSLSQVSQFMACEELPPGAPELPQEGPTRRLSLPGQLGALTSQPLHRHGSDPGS

Compound	hERG current change (%, negative = inhibition) at 10uM
O=C(COC(=O)c1ccc([N+](=O)[O-])cc1)Nc1cccnc1Cl	-1.85%
Cn1ccsc1=NC(=O)c1cc(S(=O)(=O)N2CCOCC2)ccc1Cl	-4.3%
CC(=O)Nc1sc2c(c1C(c1cccc(F)c1)N1CCN(CCO)CC1)CCCC2 (stereo not shown)	-41.4%
O=C(O)c1ccc(S(=O)(=O)Nc2cccc(CP(=O)(c3ccccc3)c3ccccc3)c2)cc1	17.6%
Nc1ccccc1Nc1cccc(C(F)(F)F)c1	8.31%
NC(=O)C1CCN(C(=O)Nc2csc3ccccc23)CC1	4.59%
COc1ccc(OC)c(C(=O)COC(=O)c2cc(C)oc2C)c1	11.8%
CN(CCN(C)C(C)(C)C)C(=O)C(c1ccccc1)c1ccccc1	-8.05%
CC1CCN(c2ccccc2NC(=S)NC(=O)c2cccs2)CC1	-50.2%
CN1CCN(C(=O)c2ccc(F)c(F)c2)CC1	6.82%
CSc1nc(N)nc(SCC(=O)c2ccc(C)cc2)c1C#N	7.8%
CC(C)c1ccccc1NC1=NCCCS1	4.91%
Cc1cc(NC(=O)c2ccccc2Cl)n(C(C)(C)C)n1	19.3%
CC(CCN1CCOCC1)c1ccccc1 (stereo not shown)	21.9%
CC(C)(C)c1ccc(OCc2cnc(Cl)s2)cc1	21.6%
CCOC(=O)COc1cccc(C2NC(=O)c3ccccc3O2)c1 (stereo not shown)	-0.167%
N#C/C(=C\c1ccccc1Br)C(=O)NC1CC1	-15.5%
Cn1c(=O)c2c(nc(Br)n2CCc2ccccc2)n(C)c1=O	-3.12%
Oc1cccc(/C=N/N2CCN(c3ccccn3)CC2)c1	-12.2%
N#C/C(=C\c1cn[nH]c1-c1ccc(Cl)cc1)C(=O)NCc1ccccc1	-4.37%

Compound	hERG current change (%, negative = inhibition) at 10uM
COc1cccc(CN2CCNC(=O)C2CC(=O)NCCN2CCCCC2=O)c1 (stereo not shown)	17%
CC(C)(C)n1nnnc1C(c1ccc(F)cc1)N1CCN(Cc2ccc3c(c2)OCO3)CC1 (stereo not shown)	-37.8%
CN(C)C=O.Cc1cc(C)n2nc(C(=O)OCC(=O)c3c[nH]c4ccccc34)nc2n1	29%
C/C(=N\NC(=O)C1CC1)c1cccs1	9.16%
Cc1cc(=O)[nH]c2c(C)cc(S(=O)(=O)NCc3ccccc3)cc12	11.7%
COc1ccc(C(=O)N2CCN=C2SC)cc1OC	-5.58%
Cc1ccc(C(=O)Nc2nc(-c3cc(Cl)sc3Cl)cs2)cc1	4.2%
CC(C)(C)c1nn(-c2ccccc2)c2[nH]c(=O)c(CNCc3ccc4c(c3)OCO4)cc12	-17.9%
COC(=O)c1nn(-c2ccc(C)cc2)ccc1=O	17.2%
Cc1ccc(C2CC(c3cccs3)=NN2S(=O)(=O)c2ccc(C)cc2)cc1 (stereo not shown)	10.7%
C=CCOCCN(C)C1=NS(=O)(=O)c2cc([N+](=O)[O-])ccc21	-19.8%
Cc1ccc(C(=O)N/C(=C/c2ccco2)C(=O)N2CCOCC2)cc1	-12.7%
Cc1ccc(S(=O)(=O)N2CCC(C(=O)OCC(=O)N3CC(=O)Nc4ccccc43)CC2)cc1	-27.2%
Cc1ccc2nc(SCC(=O)Nc3nonc3C)[nH]c2c1	12.6%
C(=N\Nc1nc(-c2ccccc2)cs1)/c1cccnc1	-59.5%
Cc1ccsc1/C=N/NC(=O)CNC(=O)c1ccccc1	10.2%
CCOc1ccc(C(=O)N/N=C/c2ccccc2[N+](=O)[O-])cc1	6.35%
CC(C)OCCCNC(=O)C1CC(=O)N(C2CCCCCCC2)C1 (stereo not shown)	11.5%
COc1ccccc1N1C(=O)C2C(c3ccc(F)cc3)NN(C(=O)c3ccc(C)cc3)C2C1=O (stereo not shown)	0.222%
Cl.Clc1c(OCCCn2ccnc2)ccc2ccccc12	-31.9%

Compound	hERG current change (%, negative = inhibition) at 10uM
COc1cc(N)c(Cl)cc1C(=O)OCC(=O)N1CCc2ccccc21	-1.13%
Cc1cc(NC(=O)CSc2nc(-c3ccco3)cc(C(F)(F)F)n2)no1	23.3%
Fc1ccc(-c2nc3cnccn3c2NC2CCCC2)cc1	6.31%
CC1CCN(c2ccc(-c3ccc(NC(=O)C(F)(F)F)cc3)nn2)CC1	6.63%
CCN(CC)S(=O)(=O)c1cc(NC(=O)C(C)N2CCN(c3ccccn3)CC2)ccc1C (stereo not shown)	-39.3%
O=[N+]([O-])c1ccc(P(=O)(Cc2ccccc2)c2ccccc2O)cc1 (stereo not shown)	26.2%
NC(=O)C1CCCN(S(=O)(=O)c2ccc3ccccc3c2)C1 (stereo not shown)	-7.12%
CCOC(=O)C1CCN(C(=O)Cn2cnc3sc(C)c(S(=O)(=O)N4CCCCC4)c3c2=O)CC1	-35.5%
COC(=O)CSc1nc(C)cc(C(F)(F)F)c1C#N	-4.62%
O=C(NCCc1nnc2ccc(SCC(=O)N3CCOCC3)nn12)c1ccccc1	7.63%
CC(=O)OCN(C#N)c1nc(N(C)C)nc(N(C)C)n1	5.8%
N#CCCN(C(=O)COc1ccc(F)cc1Br)c1ccccc1F	-8.54%
CCCCc1nc(C(N)=O)c2[nH]c(=O)n(-c3ccccc3F)c2n1	-2.06%
COc1ccc(Cl)cc1NC(=O)CN(C)C(=O)c1cc(=O)c2ccccc2o1	-28%
Cc1ccc(S(=O)(=O)N2c3ccccc3NC(=O)CC2C)cc1 (stereo not shown)	10.5%
Cl.c1ccc(Cc2ccc(OCCN3CCOCC3)cc2)cc1	-14.3%
NC(N)=N/N=C/c1ccc(OS(=O)(=O)c2ccccc2)cc1	-55.6%
OCCC1CN(Cc2ccccc2-c2ccco2)CCN1Cc1ccccc1 (stereo not shown)	-35.7%
